# According to the RNAGym collection of RNA variant scans (doi:10.1093/nar/gkz1192):
# Read counts are not given, so values of variants with three or more changes are uncertain.
# B1: CPEB3 Ribozyme (parent)
# chain: UAACAGGGGGCCACAGCAGAAGCGUUCACGUCGCAGCCCCUGUCAGAUUCUGGUGAAUCUGCGAAUUCUGCUGUAUAUCUC
# Variants of: B1
# Experiment: self-cleavage, relative activity (ratio to wild type); higher = more cleavage; in vitro, sequencing
# In short: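 After error-prone PCR and barcoding, CPEB3 ribozyme mutant libraries were transcribed with T7 RNA polymerase at 37°C for 5 hours, then given 15 min with DNase I before an EDTA stop, and they cleaved during both steps. Reverse transcription with template switching preceded Illumina sequencing. Relative activity divides a variant's cleaved/total read fraction by the unmutated ribozyme's. At least 5 reads were required per variant, and three batches were averaged.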
row,Variant,self-cleavage
1,A15G U25G U80A,0.43
2,A15G U26A A28G U54C G70U,0.07
3,A15G U26A C34A U66C,0.08
4,A15G U26A C34U U41C A56G,0.17
5,A15G U26A C37U A47G A64G U78C,0.39
6,A15G U26A G33A U48C A57G,0.07
7,A15G U26A U41C A47G,0.5
8,A15G U26C A35C,0.34
9,A15G U26C A35G U43C A56G A75G,0.19
10,A15G U26C A35G U51C U69C U80C,0.17
11,A15G U26C A47U U60A U72C,0.3
12,A15G U26C A57G U58C A64G U72C,0.23
13,A15G U26C A75G,0.29
14,A15G U26C U43C U49G,0.21
15,A15G U26C U51A U80G,0.36
16,A15G U26C U51C U76C,0.48
17,A15G U31A A35G U51G U67A,0.62
18,A15G U31A A77G,0.82
19,A15G U31A C34U A45G A56G U74C,0.09
20,A15G U31A C34U U48C A64U U67A U80C,0.08
21,A15G U31A C40A U78C,0.16

row,Variant,self-cleavage
1,A15G U31A C40U,0.58
2,A15G U31A C50A U60C G61A U80C,0.16
3,A15G U31A U41A U60C G63A U72C,0.12
4,A15G U31A U41C A45G,0.23
5,A15G U31A U51C,0.66
6,A15G U31C A35C A45U A47G U48C,0
7,A15G U31C A57G U58C U69G,0.04
8,A15G U31C A57G U78C,0.44
9,A15G U31C C38A U43C U60A,0.13
10,A15G U31C U41C A47G U67A,0.17
11,A15G U31G C38G A65U,0.11
12,A15G U41A A56G U58C,0.05
13,A15G U41A A64U U78C,0.18
14,A15G U41A A75G,0.32
15,A15G U41A G52C A57G,0.11
16,A15G U41A U43A U69C,0.42
17,A15G U41A U43C U51A U60A G70U,0.08
18,A15G U41A U58C A75U,0.19
19,A15G U41A U60C,0.25
20,A15G U41C A45G U60A U72C A75G,0.97
21,A15G U41C A45U U51C U67A U72C U78C,0.27

row,Variant,self-cleavage
1,A15G U41C A64U,0.18
2,A15G U41C U48A,0.18
3,A15G U41C U49C U67C,0.05
4,A15G U41C U49C U74C,0.16
5,A15G U41C U51A,0.93
6,A15G U41C U51A U54C,1.15
7,A15G U41C U69C,0.26
8,A15G U41G U58C,0.14
9,A15G U43A U49G,0.39
10,A15G U43A U54A,1.05
11,A15G U43A U69C U74C,0.21
12,A15G U43C A56G U60C,0.32
13,A15G U43C U60A,0
14,A15G U43C U69A,0.11
15,A15G U43C U78C,0.39
16,A15G U43C U80C,0.56
17,A15G U43G A45U,0.1
18,A15G U48C A56G U60C,0.14
19,A15G U48C A64G,0.21
20,A15G U48C U51C C59A,0.13
21,A15G U48C U76A,0.21

row,Variant,self-cleavage
1,A15G U49A U54C,0.35
2,A15G U49C G73C U74A,0.33
3,A15G U49C U54A U74A,0.27
4,A15G U49C U54G A57G,0.23
5,A15G U49C U72C C79U,0.69
6,A15G U49C U74C,0.31
7,A15G U49C U76A U78C,0.24
8,A15G U51A A56U A57G U76C,0.21
9,A15G U51A A65U U69C,0.08
10,A15G U51A U54G U74A U76A,0.88
11,A15G U51C A75U U80C,0.9
12,A15G U51C U78C,0.61
13,A15G U54A U69A,0.3
14,A15G U54C U78C,1.03
15,A15G U54G A56U U60C,0.21
16,A15G U54G U78C,0.88
17,A15G U60A U74A,0.23
18,A15G U67C C68A,0.26
19,A15G U67C C81U,0.18
20,A15G U67C U69A,0.17
